# The whole screen tested about 200,000 compounds, of which about 4,500 (2.2%) were called active. Inconclusive results, whose numbers are uncertain, are shown with a selection of clear calls. Calls follow the shape of the dose curve; as a rule, active = well fitted inhibition curve with a large enough effect; inconclusive = small, poorly fitted or top-dose-only effect, or effect the other way; inactive = flat fitted curve, though single readings scatter. Where the call is inconclusive, the potency comes from a doubtful curve fit.
# Target: Cruzipain (Trypanosoma cruzi) (UniProt P25779)
# Sequence of UniProt P25779 (P25779 whole entry, looked up): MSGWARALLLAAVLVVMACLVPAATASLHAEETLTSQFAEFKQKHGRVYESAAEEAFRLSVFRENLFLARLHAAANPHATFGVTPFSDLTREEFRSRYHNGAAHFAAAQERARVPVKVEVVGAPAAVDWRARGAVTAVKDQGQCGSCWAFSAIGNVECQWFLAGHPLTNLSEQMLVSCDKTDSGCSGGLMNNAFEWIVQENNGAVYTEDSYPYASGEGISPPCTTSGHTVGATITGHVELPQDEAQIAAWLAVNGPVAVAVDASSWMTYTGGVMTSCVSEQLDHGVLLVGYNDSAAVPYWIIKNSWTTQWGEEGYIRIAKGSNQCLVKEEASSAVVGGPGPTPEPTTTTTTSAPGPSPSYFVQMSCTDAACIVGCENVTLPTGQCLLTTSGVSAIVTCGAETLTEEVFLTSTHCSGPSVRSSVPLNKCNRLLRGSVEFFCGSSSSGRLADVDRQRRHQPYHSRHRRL
# Assay: qHTS Assay for Promiscuous and Specific Inhibitors of Cruzain (without detergent); also: nearly all actives have a fitted effect of over 40% in size;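 as to max response, negative = inhibition: plate controls were enzyme without inhibitor for no effect and buffer without enzyme for full effect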
# Conditions: purified cruzain, Z-FR-AMC fluorescence, no detergent
# Summary of the method: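 Purified cruzain at 1.5 nM, pre-incubated 15 min with compound at room temperature in 100 mM sodium acetate pH 5.5, 5 mM DTT, 0.00005% Triton X-100. Reaction started with 2 uM Z-FR-AMC; AMC fluorescence increase over 60 s gives rate.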
# Potency is read from the fitted curve at half-maximal effect; tags tell the direction and shape of the fitted curve.
SMILES,"max response, negative = inhibition",Potency
CCOC(=O)N1CCc2c(sc3c2c(=O)n(-c2ccc(CC)cc2)c(=O)n3Cc2ccc(F)cc2Cl)C1,inactive: -12.1%,
Cc1ccc(Cl)cc1NC1=C/C(=N\S(=O)(=O)c2cccs2)c2ccccc2C1=O,,"inconclusive: 39.8 µM [inhibitor, single point]"
COc1ccccc1N1CCN(C(=O)c2cc3c(=O)n(Cc4cccs4)ccc3nc2C)CC1,,"inconclusive: 31.6 µM [activator, single point]"
CC[C@@H](CS(=O)(=O)O)[N+](=O)[O-],inactive: -4.45%,
CCc1ccc(NC(=O)Cn2nnc(-c3ccccc3N)n2)cc1,inactive: -7.24%,
COc1ccc(S(=O)(=O)N(CC(=O)NC(C)c2ccccc2)c2ccc(C)cc2)cc1OC (stereo not given),,"inconclusive: 31.6 µM [activator, single point]"
COC(=O)c1ccc(COn2c(=O)c(C)[n+]([O-])c3ccccc32)cc1,inactive: -17.1%,
CCOC(=O)C1=C(CP(=O)(c2ccccc2)c2ccccc2)NC(=O)NC1c1ccc(Cl)cc1 (stereo not given),,"inconclusive: 25.1 µM [activator, single point]"
Cc1ccc(N2C(=O)CC(Nc3ccccc3)C2=O)cc1 (stereo not given),,"inconclusive: 39.8 µM [inhibitor, single point]"
O=c1[nH]c2cc3c(cc2cc1C(c1nnnn1Cc1ccccc1)N1CCCc2ccccc21)OCO3 (stereo not given),,"inconclusive: 31.6 µM [inhibitor, single point]"
Cc1ccccc1NC(=O)Cn1nnc(S(=O)(=O)c2ccc(C(C)(C)C)cc2)c1N,,active: 7.94 µM
c1ccc(CNc2oc(-c3ccccc3)nc2-c2ccccc2)cc1,inactive: -9.55%,
CCOc1ccccc1-c1noc(CSc2nnc(-c3ccccc3)n2-c2ccc(OC)cc2)n1,inactive: -8.76%,
CC(NC(=O)OCc1ccccc1)C(=O)NCC(=O)NC(Cc1ccc(OC(C)(C)C)cc1)C(=O)OC(C)(C)C (stereo not given),,"inconclusive: 12.6 µM [activator, partial curve]"
COc1ccc(/C=C2/C(=O)N(c3nc4ccccc4s3)N=C2CSc2ccc(Cl)cc2)cc1,,active: 3.16 µM
CCOC(=O)N1CCC(NC(=O)c2ccc3c(c2)N(Cc2ccccc2C)C(=O)c2ccccc2S3=O)CC1 (stereo not given),,"inconclusive: 39.8 µM [activator, single point]"
CCn1c(C)c(C2=CCN(S(=O)(=O)c3ccccc3)CC2)c2ccccc21,,"inconclusive: 31.6 µM [inhibitor, single point]"
O=C(Nc1ccccc1C(F)(F)F)N1CCOc2ccc(Cl)cc21,,"inconclusive: 20 µM [activator, single point]"
O=C1c2cccc3cccc(c23)C(=O)N1CCN1CCN(C(=S)Nc2ccccc2)CC1,,"inconclusive: 39.8 µM [inhibitor, single point]"
CC(C)CCNS(=O)(=O)c1ccc(-c2ccc(S(=O)(=O)NCCC(C)C)cc2)cc1,,active: 10 µM
CCOC(=O)C1=C(C)NC2=C(C(=O)C(C(=O)OCC)C(c3ccc(OC)cc3)C2)C1c1ccccn1 (stereo not given),,"inconclusive: 39.8 µM [activator, single point]"
COc1ccc(-c2cc(C(F)(F)F)nc(SCC(=O)N(C)Cc3cn(C)nc3C)n2)cc1OC,,"inconclusive: 25.1 µM [activator, single point]"

SMILES,"max response, negative = inhibition",Potency
O=C(Cc1sc(Nc2ccccc2)nc1-c1ccccc1)NCc1ccccc1,,"inconclusive: 39.8 µM [inhibitor, single point]"
Cc1ccccc1Cn1ccn(-c2ccc(F)c(F)c2)c(=O)c1=O,inactive: -3.39%,
COc1ccc2c(=O)c(C(=O)NCCc3ccc(OC)c(OC)c3)c[nH]c2c1,,"inconclusive: 31.6 µM [activator, single point]"
CCOC(=O)c1cc(-c2ccc(/C=C3/C(=O)NC(=O)C(C#N)=C3C)o2)ccc1Cl,,"inconclusive: 25.1 µM [activator, single point]"
O=C(Nc1ccc2c(c1)OCO2)c1ccc(COc2ccc3c(c2)CCC3)o1,,"inconclusive: 10 µM [inhibitor, partial curve]"
COc1ccc(-n2c(SCC(=O)Nc3nccs3)nc3sc4c(c3c2=O)CCN(C)C4)cc1,,"inconclusive: 31.6 µM [inhibitor, single point]"
O=C(Nc1cc(Cl)ccc1Cl)c1ccc2c(c1)N(Cc1cccc(Cl)c1)C(=O)c1ccccc1S2=O (stereo not given),,"inconclusive: 3.16 µM [inhibitor, single point]"
CC(=O)NC(=S)Nc1ccc(-c2nc3ccc(C)cc3s2)cc1,,active: 6.31 µM
CCOC(=O)C1(CC)NC(c2ccco2)C2C(=O)N(c3ccc(C)cc3)C(=O)C21 (stereo not given),inactive: 10.8%,
Cc1ccc2ccc3cc(C(=O)N4CCN(c5ccccc5F)CC4)nc3c2[nH]1,inactive: -22%,
Cc1ccc(C(=O)N(Cc2ccc(N(C)C)cc2)CC2CCCO2)cc1 (stereo not given),inactive: 5.43%,
Cn1c(=O)n(CCOc2ccccc2Cl)c2ccccc21,,"inconclusive: 31.6 µM [activator, single point]"
Cc1ccc(NC(=O)Cn2c(=O)n(Cc3nc(-c4ccccc4)no3)c(=O)c3ccccc32)c(C)c1,inactive: -16.5%,
COc1ccc(NC(=O)c2cnn3c(C(F)(F)F)cc(-c4ccco4)nc23)cc1OC,,"inconclusive: 12.6 µM [activator, partial curve]"
CCN(C(=O)CN1C(=O)c2ccccc2Sc2ccc(C(=O)OC)cc21)c1cccc(C)c1,,"inconclusive: 3.98 µM [activator, single point]"
Cc1ccc(OCC(=O)Nc2ccc(OCc3cc(=O)n4ccsc4n3)cc2)cc1C,inactive: -2.78%,
CCCCC[C@H](O)C=C[C@H]1[C@H](O)CC(=O)[C@H]1CCCCCCC(=O)O,,"inconclusive: 31.6 µM [activator, partial curve, poor fit]"
CCCn1nnc(NC(=S)NC(=O)c2cccs2)n1,inactive: 1.96%,
Cc1cccc(CSc2cn(CC(=O)N3CCOCC3)c3ccccc23)c1,,"inconclusive: 31.6 µM [activator, single point]"
Cn1c(=O)n(CCOc2ccc(Cl)cc2Cl)c2ccccc21,,"inconclusive: 39.8 µM [activator, single point]"
CC1C2CCC3C4CC=C5CC(N(C)C)CC[C@@]5(C)C4CC[C@@]32CN1C (stereo not given in full),inactive: -1.23%,
COc1ccc(S(=O)(=O)N2CCC(c3nc4ccccc4s3)CC2)cc1OC,inactive: 1.35%,

SMILES,"max response, negative = inhibition",Potency
Cc1ccc(N=c2oc3cc(O)ccc3cc2C(N)=O)cc1,,"inconclusive: 25.1 µM [activator, partial curve]"
COCCN(CCOC)S(=O)(=O)c1ccc(C(=O)Nc2sc3c(c2C(N)=O)CCCC3)cc1,inactive: 9.05%,
Clc1ccc(C2=Nn3c(nnc3-c3n[nH]c4c3CCC4)SC2)cc1Cl,,"inconclusive: 39.8 µM [activator, single point]"
CCC(C)C(=O)OC1CCC=C2C=CC(C)C(CCC3CC(O)CC(=O)O3)[C@@H]21 (stereo not given in full),,"inconclusive: 39.8 µM [activator, single point]"
CCOc1ccc2c(c1)c1nnc(SCC(=O)N3CCC(C)CC3)nc1n2C,,"inconclusive: 39.8 µM [activator, single point]"
Cc1cccc(-c2nc(SCc3cc(=O)c4c(C)cc(C)cc4[nH]3)n[nH]2)c1,,"inconclusive: 25.1 µM [inhibitor, single point]"
O=C(N/N=C/c1ccc(Cl)cc1Cl)c1n[nH]c2c1CCCC2,,"inconclusive: 31.6 µM [inhibitor, single point]"
COc1cc(NC(=O)Nc2nnc(N3CCCCCC3)s2)cc(OC)c1,inactive: -3.47%,
Cc1ccc(-c2nc3c(cnn3-c3ccccc3)c(=O)n2-c2cccc(Cl)c2)cc1,,"inconclusive: 39.8 µM [inhibitor, single point]"
CCCC(=O)OCC[N+](C)(C)C,inactive: 1.63%,
O=P(C1=C(N2CCOCC2)/C(=C\c2ccccc2)CC1)(N1CCOCC1)N1CCOCC1,,"inconclusive: 31.6 µM [activator, single point]"
O=C(O)c1cnc(-c2ccccc2)nc1Sc1ccc(Cl)cc1,,"inconclusive: 39.8 µM [activator, single point]"
O=C(/C(=C/O)N=Nc1ccc(Cl)cc1)c1ccncc1,,"inconclusive: 39.8 µM [inhibitor, single point]"
C/C(=N\NC(=O)CSCc1ccc(Cl)cc1)c1ccc(NC(=O)c2ccccc2)cc1,,active: 25.1 µM
Cc1ccccc1CN1C(=O)c2ccccc2Sc2ccc(C(=O)OCc3ccco3)cc21,,"inconclusive: 31.6 µM [inhibitor, single point]"
O=C(NCc1ccccc1)c1ccc2c(c1)N(Cc1cccc(Cl)c1)C(=O)c1ccccc1S2(=O)=O,,"inconclusive: 39.8 µM [inhibitor, single point]"
CCOC(=O)c1sc(-c2ccccc2)cc1NC(=O)c1ccc(S(=O)(=O)N(CCOC)CCOC)cc1,,"inconclusive: 25.1 µM [activator, single point]"
Cc1nnc(SCCC(=O)Nc2nc(-c3ccccc3)ns2)s1,,"inconclusive: 39.8 µM [inhibitor, single point]"
Cc1ccc(N2CCN(c3c(CN4CCCC4)c(=O)oc4ccccc34)CC2)c(C)c1,inactive: -29%,
CNC(=S)N(Cc1cccs1)Cc1cc2cc(OC)c(OC)cc2[nH]c1=O,,"inconclusive: 39.8 µM [activator, single point]"
COCCCNC(=O)c1c(NC(=O)c2cc(=O)c3ccccc3o2)sc2c1CCCC2,inactive: -5.65%,
